Among the data in PMC8363609 are binding values, retold here.

Results are given in words; binding and its absence hold for the method and conditions named. In cells and extracts the contact can be indirect. Some results given as binding are weak or reduced against the parent protein; the word gives no strength. Tags and fused reporters may be left off the sequences shown.

The target of one test is T1, GST-PMFBP1 750–1023aa (UniProt Q9WVQ0).
T1 sequence: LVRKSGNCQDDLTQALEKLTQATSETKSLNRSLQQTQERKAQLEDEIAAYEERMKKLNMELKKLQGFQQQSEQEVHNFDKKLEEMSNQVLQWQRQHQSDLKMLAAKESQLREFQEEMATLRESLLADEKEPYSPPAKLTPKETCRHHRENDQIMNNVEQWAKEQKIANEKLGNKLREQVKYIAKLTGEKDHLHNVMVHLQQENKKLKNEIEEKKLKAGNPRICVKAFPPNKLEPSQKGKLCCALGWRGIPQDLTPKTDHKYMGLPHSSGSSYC
Briefly: pull-down; GST-tagged fragment from E. coli held on Glutathione Sepharose 4B, incubated with MBP-tagged fragment from E. coli at 4 °C for 2 h; washed with 50 mM Tris pH 7.4, 150 mM KCl, 2 mM MgCl2, 0.1% Triton X-100; immunoblot with anti-GST and anti-MBP; only the target purified. For orientation: In western blotting, separated proteins are transferred to a membrane and probed.

Test [1] deals with T2, MYC-tagged CENTLEIN (mouse) (UniProt A2AM05).
T2 sequence: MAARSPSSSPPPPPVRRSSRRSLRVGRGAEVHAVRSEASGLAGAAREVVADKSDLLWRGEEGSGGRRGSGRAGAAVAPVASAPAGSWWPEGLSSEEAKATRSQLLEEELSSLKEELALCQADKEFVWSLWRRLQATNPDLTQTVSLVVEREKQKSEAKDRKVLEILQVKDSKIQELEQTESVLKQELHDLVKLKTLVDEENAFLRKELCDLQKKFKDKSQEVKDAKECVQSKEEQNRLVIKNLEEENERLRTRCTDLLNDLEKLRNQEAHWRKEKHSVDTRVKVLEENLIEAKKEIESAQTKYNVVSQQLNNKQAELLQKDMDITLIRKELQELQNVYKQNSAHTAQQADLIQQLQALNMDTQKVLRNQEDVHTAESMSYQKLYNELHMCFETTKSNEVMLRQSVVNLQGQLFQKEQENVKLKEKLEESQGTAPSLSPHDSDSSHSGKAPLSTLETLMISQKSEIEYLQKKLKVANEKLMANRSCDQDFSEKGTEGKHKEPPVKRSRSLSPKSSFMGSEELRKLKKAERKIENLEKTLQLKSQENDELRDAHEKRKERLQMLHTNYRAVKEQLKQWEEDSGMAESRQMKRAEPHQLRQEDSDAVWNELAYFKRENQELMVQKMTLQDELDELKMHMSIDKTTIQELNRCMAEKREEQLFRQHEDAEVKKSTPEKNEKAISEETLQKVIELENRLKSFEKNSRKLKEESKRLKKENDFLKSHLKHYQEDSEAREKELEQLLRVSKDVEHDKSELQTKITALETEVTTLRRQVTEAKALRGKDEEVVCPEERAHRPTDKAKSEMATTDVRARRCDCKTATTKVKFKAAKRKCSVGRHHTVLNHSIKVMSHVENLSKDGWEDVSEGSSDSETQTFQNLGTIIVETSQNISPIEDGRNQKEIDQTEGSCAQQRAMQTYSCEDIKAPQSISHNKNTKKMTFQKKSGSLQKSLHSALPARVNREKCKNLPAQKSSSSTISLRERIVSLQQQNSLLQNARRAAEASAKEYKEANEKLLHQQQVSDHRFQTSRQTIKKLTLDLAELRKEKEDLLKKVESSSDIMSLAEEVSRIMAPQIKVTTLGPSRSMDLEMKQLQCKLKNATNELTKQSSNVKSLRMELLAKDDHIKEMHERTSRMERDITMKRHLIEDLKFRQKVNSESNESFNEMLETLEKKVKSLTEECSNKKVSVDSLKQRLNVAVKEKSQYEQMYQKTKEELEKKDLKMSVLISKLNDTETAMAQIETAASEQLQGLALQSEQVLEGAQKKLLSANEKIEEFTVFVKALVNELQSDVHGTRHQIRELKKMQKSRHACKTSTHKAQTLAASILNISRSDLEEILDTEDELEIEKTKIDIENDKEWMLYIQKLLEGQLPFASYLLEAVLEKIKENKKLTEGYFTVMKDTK
Briefly: co-IP; HEK293T cells co-transfected with two tagged plasmids, collected after 24 h; lysed in ELB buffer (50 mM HEPES, 250 mM NaCl, 0.1% NP-40); IP with anti-GFP, anti-FLAG or anti-MYC antibody and Dynabeads-protein-G at 4 °C; immunoblot for the tags.

In another test the target is T3, GST-SUN5 193–373aa (UniProt Q9DA32).
T3 sequence: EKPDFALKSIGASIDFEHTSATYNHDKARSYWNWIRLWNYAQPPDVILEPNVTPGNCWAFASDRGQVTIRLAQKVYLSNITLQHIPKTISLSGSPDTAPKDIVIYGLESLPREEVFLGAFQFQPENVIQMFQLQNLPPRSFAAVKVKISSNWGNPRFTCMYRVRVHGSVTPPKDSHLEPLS
The test can be described thus: pull-down; GST-tagged fragment from E. coli held on Glutathione Sepharose 4B, incubated with MBP-tagged fragment from E. coli at 4 °C for 2 h; washed with 50 mM Tris pH 7.4, 150 mM KCl, 2 mM MgCl2, 0.1% Triton X-100; immunoblot with anti-GST and anti-MBP; only the target purified.

B1: MBP-CENTLEIN 601–970aa (domain or fragment, UniProt A2AM05 601-970)
chain: SDAVWNELAYFKRENQELMVQKMTLQDELDELKMHMSIDKTTIQELNRCMAEKREEQLFRQHEDAEVKKSTPEKNEKAISEETLQKVIELENRLKSFEKNSRKLKEESKRLKKENDFLKSHLKHYQEDSEAREKELEQLLRVSKDVEHDKSELQTKITALETEVTTLRRQVTEAKALRGKDEEVVCPEERAHRPTDKAKSEMATTDVRARRCDCKTATTKVKFKAAKRKCSVGRHHTVLNHSIKVMSHVENLSKDGWEDVSEGSSDSETQTFQNLGTIIVETSQNISPIEDGRNQKEIDQTEGSCAQQRAMQTYSCEDIKAPQSISHNKNTKKMTFQKKSGSLQKSLHSALPARVNREKCKNLPAQKSSS
B1: in the test with GST-PMFBP1 750–1023aa, the binding result is on record as “binds”.

B2: GFP-tagged PMFBP1 (protein, UniProt Q9WVQ0 1-1022)
chain: MLKLKGELRTAKGLKNEAGERDRDVSNLNSKLLSLQLDIKNLHDVCKRQGKTLQENQLCVEEAMLKANHNKKQAQTLVFTDNQMDFRVNKQYHLRQLQQLKKKLLTLQQELEFRTQELQASYCSLLQYQSILEKQTSDLLVLHRHCKLKEDEVILYEEEMGNHSKSTGEKLHLAQEQLALAGDKILSLERSLNLYRDKYQTSLSNIELLECQVKMLEGELSGLIGQDPENKGDHPKVRIYTSPCVIQEHQETLKRLSEVWQKVSEQDDLIQELRNKLACSNSLVLEREEALIKLQAEFASYTATHRHPPTSSEDCEDITKILKHLQEQKDSQCLHVEEYQNLVKDLRMELEAVSEQKKKIMKDMMKLELDLHGLREETSCVIEKKDKETVFLQYRLQDLQQQYTESQKLSLKKDKLLQDKDERLHELEKNLMQVQNSLREKEAELEKLQCTTKELDTSLQEARQSTSKIDCEALRAEIQKLKDSLEEAREQLKVSDQNLTQSKEEAHLSASSLEDAHRKIENCLLQDKQKEEVIKDLQSQLHKLQKESSKIEEERKHNRQRLQELSSELSEGQRRLSNAEKEKSLLQKTLDEDEKKIDELFHSTQVSEQKQRELTNSIRKLEEELLEIKGLLEEKREQLKKSKEQEKALEEEIEALRQEAKRKEKMAKEHLRKLDEEKENLQAELTSRSSHLDSSLNKYNSSQKVIQELNAEIARQKDSIMILQTQLDSAIQKEKNCFQNMVSKEAYEELVRKSGNCQDDLTQALEKLTQATSETKSLNRSLQQTQERKAQLEDEIAAYEERMKKLNMELKKLQGFQQQSEQEVHNFDKKLEEMSNQVLQWQRQHQSDLKMLAAKESQLREFQEEMATLRESLLADEKEPYSPPAKLTPKETCRHHRENDQIMNNVEQWAKEQKIANEKLGNKLREQVKYIAKLTGEKDHLHNVMVHLQQENKKLKNEIEEKKLKAGNPRICVKAFPPNKLEPSQKGKLCCALGWRGIPQDLTPKTDHKYMGLPHSSGSSYC
B2: the binding result in test [1] was “binds”.

B3: MBP-CENTLEIN 971–1396aa (domain or fragment, UniProt A2AM05 971-1396)
chain: STISLRERIVSLQQQNSLLQNARRAAEASAKEYKEANEKLLHQQQVSDHRFQTSRQTIKKLTLDLAELRKEKEDLLKKVESSSDIMSLAEEVSRIMAPQIKVTTLGPSRSMDLEMKQLQCKLKNATNELTKQSSNVKSLRMELLAKDDHIKEMHERTSRMERDITMKRHLIEDLKFRQKVNSESNESFNEMLETLEKKVKSLTEECSNKKVSVDSLKQRLNVAVKEKSQYEQMYQKTKEELEKKDLKMSVLISKLNDTETAMAQIETAASEQLQGLALQSEQVLEGAQKKLLSANEKIEEFTVFVKALVNELQSDVHGTRHQIRELKKMQKSRHACKTSTHKAQTLAASILNISRSDLEEILDTEDELEIEKTKIDIENDKEWMLYIQKLLEGQLPFASYLLEAVLEKIKENKKLTEGYFTVMKDT
As to B3, the binding result with GST-SUN5 193–373aa is on record as “binds”.
